In article PMC4336329 (PLoS ONE, 2015):
The whole screen tested about 310,000 compounds, of which about 2,200 (0.71%) showed an effect of 50% or more. The effect is printed as a negative number. The list shows a part of the results.

biological target: human ether-à-go-go-related gene (hERG) potassium channel (human, UniProt Q12809); experiment: primary screen, population patch clamp on CHO cells stably expressing hERG
Sequence (Q12809 whole entry, looked up): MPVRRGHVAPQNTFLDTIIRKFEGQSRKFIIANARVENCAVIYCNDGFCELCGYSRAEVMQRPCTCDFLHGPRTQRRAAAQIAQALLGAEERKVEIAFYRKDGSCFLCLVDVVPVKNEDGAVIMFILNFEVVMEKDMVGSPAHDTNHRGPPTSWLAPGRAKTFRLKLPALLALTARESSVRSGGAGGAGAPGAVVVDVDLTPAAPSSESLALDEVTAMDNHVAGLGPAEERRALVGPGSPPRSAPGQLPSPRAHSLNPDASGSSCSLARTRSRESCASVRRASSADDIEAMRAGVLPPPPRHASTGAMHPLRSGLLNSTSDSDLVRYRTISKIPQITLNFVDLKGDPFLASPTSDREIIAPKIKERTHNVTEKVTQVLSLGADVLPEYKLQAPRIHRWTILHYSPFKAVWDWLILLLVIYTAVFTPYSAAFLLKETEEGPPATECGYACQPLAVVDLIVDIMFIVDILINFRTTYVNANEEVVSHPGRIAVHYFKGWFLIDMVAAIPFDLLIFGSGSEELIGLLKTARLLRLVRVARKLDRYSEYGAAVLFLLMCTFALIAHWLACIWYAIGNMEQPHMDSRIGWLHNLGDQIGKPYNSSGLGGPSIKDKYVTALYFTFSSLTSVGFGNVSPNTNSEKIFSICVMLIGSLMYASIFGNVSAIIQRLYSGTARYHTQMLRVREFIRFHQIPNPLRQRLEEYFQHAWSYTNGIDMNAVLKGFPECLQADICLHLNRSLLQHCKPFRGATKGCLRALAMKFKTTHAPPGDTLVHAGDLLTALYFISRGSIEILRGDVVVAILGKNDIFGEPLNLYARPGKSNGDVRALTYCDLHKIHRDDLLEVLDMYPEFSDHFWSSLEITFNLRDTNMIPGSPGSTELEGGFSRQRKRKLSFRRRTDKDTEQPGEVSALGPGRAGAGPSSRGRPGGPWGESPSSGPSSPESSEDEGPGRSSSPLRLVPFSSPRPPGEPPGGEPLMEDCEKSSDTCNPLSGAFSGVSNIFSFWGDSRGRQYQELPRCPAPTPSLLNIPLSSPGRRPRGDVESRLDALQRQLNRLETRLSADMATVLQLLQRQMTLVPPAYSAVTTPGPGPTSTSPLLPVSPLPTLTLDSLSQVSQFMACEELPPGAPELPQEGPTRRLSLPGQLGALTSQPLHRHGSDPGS

Structure (SMILES) | hERG current change (%, negative = inhibition) at 1uM [%]
COCc1cc(C)nc2sc(C(=O)Nc3nccs3)c(N)c12 | 5.09
O=C1N(c2ccccc2)CCN1c1ccccc1 | 25.8
O=C(/C=C/c1ccccc1)Nc1ncn[nH]1 | 9.47
CCOc1c2ccc(C(=O)NCc3ccc(C)cc3)cc2nn1CC | 9.58
CCOC(=O)C1CCN(c2c(NCCCN3CCN(Cc4ccccc4)CC3)c(=O)c2=O)CC1 | 14.3
COc1ccc(NC(=S)/N=C(\N)Nc2nc(C)c3ccccc3n2)cc1 | 7.11
C/C(Cl)=C\Cn1c(NCCCn2ccnc2)nc2c1c(=O)n(C)c(=O)n2C | -0.552
COc1ccccc1N1C(=O)S/C(=C\c2cc(C)n(C)c2C)C1=O | 16.8
O=C(Cc1c(F)cccc1Cl)N/N=C/c1cccs1 | 11.4
CCOc1ccc(S(=O)(=O)N2CCCC(C(=O)N3CCOCC3)C2)cc1 (centres unmarked) | 1.36
CCn1c(CCC(=O)O)nc2cc(S(=O)(=O)N(C)C)ccc21 | 13.6
Cc1nc(-c2ccc(S(=O)(=O)NCC3CCN(C(=O)OC(C)(C)C)CC3)s2)cs1 | 10.1
S=C(Nc1ccc(Cl)cc1Cl)N1CCN(c2ccccn2)CC1 | 12.7
CC(C)C(=O)NC(=S)Nc1ccccc1C(F)(F)F | 11.6
CC(C)OC(=O)c1cc(=O)[nH]c2ccccc12 | 10.5
CC(C(=O)NCCc1nc2ccccc2[nH]1)n1cc([N+](=O)[O-])cn1 (centres unmarked) | 11.7
O=C1CCC(C(=O)Nc2ccccc2N2CCCC2)=NN1 | 4.67
COC(=O)Cn1c(=NC(=O)CSCC(=O)NC2CCCCC2)sc2cc(OC)ccc21 | 11.6
O=S(CCc1ccncc1)Cc1ccccc1 (centres unmarked) | 7.98
CCOC(=O)Cn1cnc2scc(-c3ccc(C)c(C)c3)c2c1=O | 10.8
Cc1cccc(NC(=O)Cc2noc3ccccc23)c1 | 10.6
O=C(NCC1(O)CCCCC1)C1CCC(=O)N(Cc2cccc(C(F)(F)F)c2)C1 (centres unmarked) | 10.7
COc1ccc(CN2C(=O)C(Cc3ccccc3)Nc3ncnc(N4CCN(c5ccccc5)CC4)c32)cc1.O=C(O)C(F)(F)F (centres unmarked) | 15.4

Structure (SMILES) | hERG current change (%, negative = inhibition) at 1uM [%]
Cc1ccc(NC(=O)CNC(=O)CC23CC4CC(CC(C4)C2)C3)c(O)c1 | -4.2
CCOP(=O)(OCC)C(Nc1ccc(C(=O)O)cc1)c1ccccc1 (centres unmarked) | 2.13
Cn1c(SCCN2CCOCC2)nc2sc3c(c2c1=O)CCCC3 | 9.15
CCn1c(C(=O)N2CCC(C(=O)NCc3ccc(OC)cc3)CC2)cc2sccc21 | -8.95
COc1ccccc1N(CCC#N)C(=O)CSc1ccc2c(c1)OCCO2 | -6.85
Cc1cc(NC(=O)COC(=O)C2CC(=O)N(c3ccccc3)C2)no1 (centres unmarked) | 15.8
O=C(CSc1ccc2ccccc2n1)Nc1nsc(-c2ccc(Cl)cc2)n1 | -4.42
O=C(NCc1cccnc1)C(=O)NCC1OCCCN1S(=O)(=O)c1ccc(Cl)cc1 (centres unmarked) | 3.57
Oc1ccc(/C=N/NC(=S)Nc2cccnc2)cc1 | 4.26
N#C/C(=C\c1cccs1)C(=O)N1CCOCC1 | 14.8
O=C(O)COc1ccccc1/C=N/NC(=O)c1ccc(F)cc1 | 1.34
O=c1[nH]c(=O)n(CCc2ccc(F)cc2)c(O)c1/C=N/N1CCCCC1 | 11.7
O=C(Nc1ccc(Cl)cc1)c1ccc2snnc2c1 | 14.7
COc1ccccc1NC(=O)Nc1ccc(C(=O)N2CCCCC2)cc1 | 2.91
Cc1onc(-c2ccccc2)c1CNS(=O)(=O)c1cccc(Br)c1 | 6.22
O=C(O)c1cccc(O)c1O | 8.42
CCOC(=O)C1=NN(c2ccc(C)cc2)C2(S1)SC(C(C)=O)=C(C)N2c1ccccc1 (centres unmarked) | 8.85
COc1ccccc1OCC(=O)NCc1ccco1 | -5.2
CCC(C)(C)NC(=O)C(c1ccc(F)cc1)N(Cc1cccc(OC)c1)C(=O)c1cnccn1 (centres unmarked) | 13.8
Cc1cc(C)c(C(=O)COC(=O)C2CCN(c3ccc(C(F)(F)F)cn3)CC2)c(C)c1 | 3.26
Cc1ccn(C)c(=N)c1 | 17.6
O=C(c1ccc(Cl)cc1)C1CCCN(Cc2ccc3c(c2)OCCO3)C1 (centres unmarked) | -17.2
COCCNC(=O)CSc1nc2ccc(N3CCOCC3)cc2c(=O)n1Cc1ccc(OC)cc1 | -17

Structure (SMILES) | hERG current change (%, negative = inhibition) at 1uM [%]
Cc1ccc(C)c(S(=O)(=O)NCC(=O)Nc2sc3c(c2C(N)=O)CCC(C)C3)c1 (centres unmarked) | 11
COC(=O)CN1C(=O)COc2ccc(S(=O)(=O)N3CCCC3)cc21 | 10.2
Cc1c(C=C2C(=O)c3ccccc3C2=O)cc(C#N)n1C | 12.8
COc1cc(C(=O)NCC(c2cccnc2)N2CCN(C)CC2)cc(OC)c1OC (centres unmarked) | 17.4
Cc1ccccc1S(=O)Cc1ccc(C(=O)NC2CC2)o1 (centres unmarked) | -1.13
NC(=O)CC(NC(=O)c1ccccc1)c1ccc(NC2CCCC2)c([N+](=O)[O-])c1 (centres unmarked) | 6.23
C#CCNc1c2c(nc3ncnn13)CC(C)CC2 (centres unmarked) | 7.52
CCN1CCN(C(=S)Nc2ccc(Cl)cc2Cl)CC1 | 16.4
Cc1ccccc1NC(=O)CSC1=C(C#N)C(c2ccsc2)CC(=O)N1 (centres unmarked) | -0.704
N#C/C(=C\c1c(N2CCCCC2)nc2ccccn2c1=O)C(=O)NC1CCS(=O)(=O)C1 (centres unmarked) | 4.73
COc1ccc(/C=N/NC(=O)c2c([N+](=O)[O-])c(C)nn2C)cc1 | 13.2
CC(C)c1ccc(NC(=O)C2CCN(S(=O)(=O)c3ccc4c(c3)NC(=O)CO4)CC2)cc1 | 11.3
CCOC(Cn1c(SCC(=O)Nc2cc(C)on2)nc2ccccc2c1=O)OCC | 11.5
COC(=O)C1=C(C)Nc2ccc(C)cc2S1 | 4.01
COc1ccc(N2CC(NC(=O)N3CCc4ccccc43)CC2=O)cc1OC (centres unmarked) | 8.85
CC(c1nccs1)N(C)c1nc2nonc2nc1NC1CC1 (centres unmarked) | 10.6
Cc1occc1C(=O)N/N=C/C(Br)=C\c1ccccc1 | 8.24
CCN(CCCNS(=O)(=O)c1ccc2c(c1)oc(=O)n2C)c1cccc(C)c1 | 11.5
COc1ccc(S(=O)(=O)N2CCC(NC(=O)Nc3ccc(C)cc3)CC2)cc1 | -1.05
CC(=O)Nc1ccc(S(=O)(=O)N(C2=NCC(C)S2)c2ccccc2)cc1 (centres unmarked) | 0.86
CN(c1ccc(OCC(=O)N2CCC(C(N)=O)CC2)cc1)S(=O)(=O)c1cccs1 | 8.43
Cc1cc(C)c2nc(SCC(=O)NNC(=O)c3ccco3)c(C)cc2c1 | 27.5
COc1ccc(/C=C2/SC(=S)N(n3c(C)ccc3C)C2=O)cc1 | 12.7

Structure (SMILES) | hERG current change (%, negative = inhibition) at 1uM [%]
CC1(C)Cc2nc3scc(NC(=O)c4ccccc4)c3cc2CO1 | 12.6
Nc1ccccc1Nc1cc(-c2ccccc2)nn1-c1cccc(Cl)c1 | 13.9
Cc1cccc(-c2oc3ccccc3c2-c2ccc3c(c2)OCO3)c1 | 17.4
CC(C)(C)OC(=O)NCCCCC1=CC2=CC(=O)C(C)(OC(=O)c3ccco3)C(=O)C2=CO1 (centres unmarked) | 11
CC1Cc2ccccc2N1C(=O)CSC1=NCCS1 (centres unmarked) | 7.52
Cc1c(NC(=O)c2ccco2)cccc1C(=O)NN1C(=O)c2ccccc2C1=O | 6.72
C=CCOCC(O)CS(=O)(=O)Cc1ccc(Cl)cc1 (centres unmarked) | 13.9
CN1CCN(Cc2nc3ccccc3c(=O)n2Cc2nc(-c3ccccc3F)cs2)CC1 | -5.99
CCC(c1nnnn1Cc1ccc2c(c1)OCO2)N1CCN(c2ccc(F)cc2)CC1 (centres unmarked) | -4
CCCc1cnc(N2CCN(C(=O)c3ccc(F)cc3)CC2)nc1 | 1.22
CCN(C(=O)CSc1nnc(-c2ccccc2Cl)n1C1CCCC1)C1CCS(=O)(=O)C1 (centres unmarked) | 12.2
O=C1C2C3C=CC(C4CC34)C2C(=O)N1/N=C/c1ccc(-c2cccc([N+](=O)[O-])c2)o1 (centres unmarked) | -1
CCC(=O)c1ccc(OCC(=O)N(CC)CC(=O)Nc2ccccc2OC)cc1 | 10.4
Cc1cccc(NC(=O)CCCN2C(=O)c3ccccc3C2=O)n1 | 10.1
Cc1onc(-c2ccccc2)c1C(=O)N=C(N)c1ccc(Cl)cc1 | 7.47
Cc1ccc(C(=O)COC(=O)CCN2C(=O)C3C4C=CC(C5CC45)C3C2=O)cc1 (centres unmarked) | -0.904
COc1ccc(-c2csc3nc(C)n(-n4cccc4)c(=O)c23)cc1OC | 5.06
CCn1ccnc1CN(C)C(=O)C1CCC(=O)N(Cc2cccc(F)c2)C1 (centres unmarked) | 10.1
CC(=O)Nc1ccc(NC(=O)Cc2ccc(F)cc2)cc1 | 10.9
C=CCNC(=O)CC(=O)N/N=C/c1cccs1 | -1.62
